Data reported in PMC10567730, “PTPN23 ubiquitination by WDR4 suppresses EGFR and c-MET degradation to define a lung cancer therapeutic target” (Cell Death & Disease, 2023).
No constants are given. Whether binding was seen depends on the method and setting. For some assays here: Binding seen in cells or lysates may run through a third protein. Some results given as binding are weak or reduced against the parent protein; the word gives no strength. For some assays here: Tags and fused reporters may be left off the sequences shown.

Chains of the proteins cited; added tags and fusions are not shown.
UniProt Q13620: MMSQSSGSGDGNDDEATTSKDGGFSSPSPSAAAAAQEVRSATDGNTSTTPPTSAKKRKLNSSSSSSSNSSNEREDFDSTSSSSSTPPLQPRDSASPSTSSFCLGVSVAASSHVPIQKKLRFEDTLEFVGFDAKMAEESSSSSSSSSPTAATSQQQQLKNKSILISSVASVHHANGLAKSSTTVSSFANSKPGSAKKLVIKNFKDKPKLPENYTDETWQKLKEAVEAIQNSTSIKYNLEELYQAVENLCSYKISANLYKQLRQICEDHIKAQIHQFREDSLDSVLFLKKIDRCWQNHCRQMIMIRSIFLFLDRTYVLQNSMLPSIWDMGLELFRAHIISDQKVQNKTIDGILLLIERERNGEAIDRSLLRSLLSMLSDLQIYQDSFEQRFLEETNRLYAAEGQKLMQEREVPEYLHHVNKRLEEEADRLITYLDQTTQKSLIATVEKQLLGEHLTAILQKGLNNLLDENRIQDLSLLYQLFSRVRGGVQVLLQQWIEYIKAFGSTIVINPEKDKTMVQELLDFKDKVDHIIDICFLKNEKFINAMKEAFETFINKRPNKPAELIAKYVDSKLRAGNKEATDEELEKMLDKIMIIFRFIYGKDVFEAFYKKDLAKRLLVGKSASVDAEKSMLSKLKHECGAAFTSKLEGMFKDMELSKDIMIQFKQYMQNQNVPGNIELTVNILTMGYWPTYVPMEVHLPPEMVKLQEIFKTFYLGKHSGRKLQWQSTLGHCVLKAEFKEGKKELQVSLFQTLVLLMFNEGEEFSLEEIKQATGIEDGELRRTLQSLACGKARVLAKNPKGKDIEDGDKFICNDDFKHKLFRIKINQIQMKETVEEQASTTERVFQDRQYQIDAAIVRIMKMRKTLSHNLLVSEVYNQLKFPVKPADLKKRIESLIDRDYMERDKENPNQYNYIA
UniProt Q13619: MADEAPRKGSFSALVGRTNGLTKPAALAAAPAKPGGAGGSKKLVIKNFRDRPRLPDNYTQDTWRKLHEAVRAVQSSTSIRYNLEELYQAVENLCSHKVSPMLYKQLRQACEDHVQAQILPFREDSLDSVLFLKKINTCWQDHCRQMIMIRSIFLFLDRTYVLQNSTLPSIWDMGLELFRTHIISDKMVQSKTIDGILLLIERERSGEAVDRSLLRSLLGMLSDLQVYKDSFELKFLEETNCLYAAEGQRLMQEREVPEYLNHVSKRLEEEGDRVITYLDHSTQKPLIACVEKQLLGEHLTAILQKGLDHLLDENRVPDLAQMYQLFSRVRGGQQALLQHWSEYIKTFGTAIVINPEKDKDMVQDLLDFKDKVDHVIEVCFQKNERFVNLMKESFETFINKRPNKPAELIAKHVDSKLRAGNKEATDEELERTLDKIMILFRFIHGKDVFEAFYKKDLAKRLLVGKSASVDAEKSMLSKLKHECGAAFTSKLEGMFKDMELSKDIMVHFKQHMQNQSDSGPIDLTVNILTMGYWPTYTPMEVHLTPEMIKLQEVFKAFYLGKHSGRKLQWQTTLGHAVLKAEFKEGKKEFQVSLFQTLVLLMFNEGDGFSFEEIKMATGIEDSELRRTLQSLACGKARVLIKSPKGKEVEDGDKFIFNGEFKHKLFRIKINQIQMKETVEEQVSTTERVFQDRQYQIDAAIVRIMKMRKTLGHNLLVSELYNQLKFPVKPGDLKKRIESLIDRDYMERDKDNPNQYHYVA

What was measured:
[1] = biological target: T1, endogenous WDR4 (human (endogenous in H1299, HEK293T, H1975)) (UniProt P57081); assay: co-IP; endogenous proteins from H1299 and HEK293T cells lysed in RIPA buffer
T1 sequence: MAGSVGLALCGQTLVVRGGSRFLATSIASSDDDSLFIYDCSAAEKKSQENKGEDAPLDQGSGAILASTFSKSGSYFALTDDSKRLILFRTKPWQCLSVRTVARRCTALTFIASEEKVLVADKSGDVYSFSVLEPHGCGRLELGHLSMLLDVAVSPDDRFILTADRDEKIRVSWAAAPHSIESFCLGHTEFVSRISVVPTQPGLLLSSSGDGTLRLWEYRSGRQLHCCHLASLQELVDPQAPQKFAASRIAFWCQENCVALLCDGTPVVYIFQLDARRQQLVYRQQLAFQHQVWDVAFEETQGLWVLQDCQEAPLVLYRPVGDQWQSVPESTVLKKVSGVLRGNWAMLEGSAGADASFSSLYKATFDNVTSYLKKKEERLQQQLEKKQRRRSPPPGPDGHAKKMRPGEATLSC

[2] = biological target: T1, endogenous WDR4 (human (endogenous in H1299, HEK293T, H1975)); assay: proximity ligation; Duolink in situ PLA with antibodies to PTPN23 and WDR4 in H1299 cells
[3] = biological target: T1, endogenous WDR4 (human (endogenous in H1299, HEK293T, H1975)); assay: co-IP; endogenous PTPN23 and WDR4 in H1975 cells incubated with Bro40 peptide or vehicle and treated with 5 μM MG132 for 16 h
[4] = biological target: T1, endogenous WDR4 (human (endogenous in H1299, HEK293T, H1975)); assay: co-IP; endogenous PTPN23 and WDR4 in H1299 cells transiently transfected with GFP-Bro40 or GFP-Bro40mut and treated with 5 μM MG132 for 16 h
GST-WDR4 = biological target: T2, GST-WDR4 (UniProt P57081); assay: pull-down; GST-WDR4 bound on glutathione beads incubated with purified PTPN23 or PTPN23 segments; binding buffer 50 mM Tris-HCl pH 7.5, 150 mM NaCl, 1% NP-40; bound proteins by Western blot; both purified
T2 sequence: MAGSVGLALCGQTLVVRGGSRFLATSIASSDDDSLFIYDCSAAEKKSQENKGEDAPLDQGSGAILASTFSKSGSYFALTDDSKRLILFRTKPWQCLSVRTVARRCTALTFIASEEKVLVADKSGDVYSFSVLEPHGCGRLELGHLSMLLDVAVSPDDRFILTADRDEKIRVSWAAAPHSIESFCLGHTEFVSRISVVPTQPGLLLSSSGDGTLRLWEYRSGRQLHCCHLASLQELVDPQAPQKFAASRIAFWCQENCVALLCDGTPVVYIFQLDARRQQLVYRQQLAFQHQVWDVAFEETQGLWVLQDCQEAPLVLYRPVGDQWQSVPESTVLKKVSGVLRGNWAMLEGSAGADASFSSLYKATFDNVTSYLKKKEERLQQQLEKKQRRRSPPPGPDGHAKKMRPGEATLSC

[5] = biological target: T3, WDR4 (co-precipitation with PTPN23 Bro1 constructs in H1299 cells) (UniProt P57081); assay: co-IP; PTPN23 Bro1 or its truncated mutants expressed in H1299 cells (Fig. 6B, C); cells of Supplementary Fig. S5A not stated
T3 sequence: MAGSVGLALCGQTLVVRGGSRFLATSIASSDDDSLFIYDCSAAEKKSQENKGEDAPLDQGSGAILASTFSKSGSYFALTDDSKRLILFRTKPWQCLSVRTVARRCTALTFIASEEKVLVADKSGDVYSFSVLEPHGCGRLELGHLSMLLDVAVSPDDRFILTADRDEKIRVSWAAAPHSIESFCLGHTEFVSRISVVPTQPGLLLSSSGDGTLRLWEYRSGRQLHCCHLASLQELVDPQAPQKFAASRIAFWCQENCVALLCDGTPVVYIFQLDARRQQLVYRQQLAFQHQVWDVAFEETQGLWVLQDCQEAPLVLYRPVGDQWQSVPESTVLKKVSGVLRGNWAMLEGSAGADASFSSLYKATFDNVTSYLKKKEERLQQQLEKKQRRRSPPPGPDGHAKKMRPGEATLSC

Myc-Cul4B = Myc-Cul4B (UniProt Q13620); assay: co-IP; WDR4-based Cul4 ligase complex purified with anti-Myc beads from HEK293T cells cotransfected with Myc-Cul4A or Myc-Cul4B and other complex subunits; integrity of the input complex shown by blot
Myc-Cul4A = Myc-Cul4A (UniProt Q13619); assay: as above

“endogenous PTPN23 (from UniProt Q9H3S7 1-1636)” was tested, and the binding [1] was “binds”, the binding [2] was “binds” and the binding [3] was “binds”. For the same molecule, the binding [4] was “binds”.

B1: Flag-PTPN23 Bro1 domain (purified from baculovirus) (domain or fragment, UniProt Q9H3S7 1-361)
chain: MEAVPRMPMIWLDLKEAGDFHFQPAVKKFVLKNYGENPEAYNEELKKLELLRQNAVRVPRDFEGCSVLRKYLGQLHYLQSRVPMGSGQEAAVPVTWTEIFSGKSVAHEDIKYEQACILYNLGALHSMLGAMDKRVSEEGMKVSCTHFQCAAGAFAYLREHFPQAYSVDMSRQILTLNVNLMLGQAQECLLEKSMLDNRKSFLVARISAQVVDYYKEACRALENPDTASLLGRIQKDWKKLVQMKIYYFAAVAHLHMGKQAEEQQKFGERVAYFQSALDKLNEAIKLAKGQPDTVQDALRFTMDVIGGKYNSAKKDNDFIYHEAVPALDTLQPVKGAPLVKPLPVNPTDPAVTGPDIFAKLV
In the case of B1, the binding (GST-WDR4) is reported as “binds”.

B2: PTPN23 Bro1 (GST pull down of Fig. 6D) (domain or fragment, UniProt Q9H3S7 1-361)
chain: MEAVPRMPMIWLDLKEAGDFHFQPAVKKFVLKNYGENPEAYNEELKKLELLRQNAVRVPRDFEGCSVLRKYLGQLHYLQSRVPMGSGQEAAVPVTWTEIFSGKSVAHEDIKYEQACILYNLGALHSMLGAMDKRVSEEGMKVSCTHFQCAAGAFAYLREHFPQAYSVDMSRQILTLNVNLMLGQAQECLLEKSMLDNRKSFLVARISAQVVDYYKEACRALENPDTASLLGRIQKDWKKLVQMKIYYFAAVAHLHMGKQAEEQQKFGERVAYFQSALDKLNEAIKLAKGQPDTVQDALRFTMDVIGGKYNSAKKDNDFIYHEAVPALDTLQPVKGAPLVKPLPVNPTDPAVTGPDIFAKLV
With B2 the binding (GST-WDR4) was “binds”.

B3: PTPN23 Bro1 (expressed in H1299 cells) (domain or fragment, UniProt Q9H3S7 1-361)
chain: MEAVPRMPMIWLDLKEAGDFHFQPAVKKFVLKNYGENPEAYNEELKKLELLRQNAVRVPRDFEGCSVLRKYLGQLHYLQSRVPMGSGQEAAVPVTWTEIFSGKSVAHEDIKYEQACILYNLGALHSMLGAMDKRVSEEGMKVSCTHFQCAAGAFAYLREHFPQAYSVDMSRQILTLNVNLMLGQAQECLLEKSMLDNRKSFLVARISAQVVDYYKEACRALENPDTASLLGRIQKDWKKLVQMKIYYFAAVAHLHMGKQAEEQQKFGERVAYFQSALDKLNEAIKLAKGQPDTVQDALRFTMDVIGGKYNSAKKDNDFIYHEAVPALDTLQPVKGAPLVKPLPVNPTDPAVTGPDIFAKLV
In the case of B3, the binding [5] is reported as “binds”.

B4: GST-WDR4 (natural protein, UniProt P57081 1-412, looked up)
chain: MAGSVGLALCGQTLVVRGGSRFLATSIASSDDDSLFIYDCSAAEKKSQENKGEDAPLDQGSGAILASTFSKSGSYFALTDDSKRLILFRTKPWQCLSVRTVARRCTALTFIASEEKVLVADKSGDVYSFSVLEPHGCGRLELGHLSMLLDVAVSPDDRFILTADRDEKIRVSWAAAPHSIESFCLGHTEFVSRISVVPTQPGLLLSSSGDGTLRLWEYRSGRQLHCCHLASLQELVDPQAPQKFAASRIAFWCQENCVALLCDGTPVVYIFQLDARRQQLVYRQQLAFQHQVWDVAFEETQGLWVLQDCQEAPLVLYRPVGDQWQSVPESTVLKKVSGVLRGNWAMLEGSAGADASFSSLYKATFDNVTSYLKKKEERLQQQLEKKQRRRSPPPGPDGHAKKMRPGEATLSC
notes: WDR4 cDNA amplified by PCR and cloned to pGEX-4T-1; pGEX-4T-1 would place GST at the N-terminus (surmised from the vector); also called bacterially purified GST-WDR4
In the case of B4, the binding (Myc-Cul4B) is reported as “binds” and the binding (Myc-Cul4A) is reported as “binds”.

GQPDTVQDALRFTMDVIGGKYNSAKKDNDFIYHEAVPALD (peptide, UniProt Q9H3S7 289-328) [GFP-Bro40] was tested, and the binding [4] was “binds”.

B5: PTPN23 M2 segment with deletion of residues 289–328 (Δ6) (domain or fragment, UniProt Q9H3S7 108-288)
chain: EDIKYEQACILYNLGALHSMLGAMDKRVSEEGMKVSCTHFQCAAGAFAYLREHFPQAYSVDMSRQILTLNVNLMLGQAQECLLEKSMLDNRKSFLVARISAQVVDYYKEACRALENPDTASLLGRIQKDWKKLVQMKIYYFAAVAHLHMGKQAEEQQKFGERVAYFQSALDKLNEAIKLAK
For B5, the binding [5] was “no binding”.

B6: PTPN23 Bro1 domain with deletion of residues 289–328 (Δ6), expressed in H1299 cells (domain or fragment, UniProt Q9H3S7)
chain: MEAVPRMPMIWLDLKEAGDFHFQPAVKKFVLKNYGENPEAYNEELKKLELLRQNAVRVPRDFEGCSVLRKYLGQLHYLQSRVPMGSGQEAAVPVTWTEIFSGKSVAHEDIKYEQACILYNLGALHSMLGAMDKRVSEEGMKVSCTHFQCAAGAFAYLREHFPQAYSVDMSRQILTLNVNLMLGQAQECLLEKSMLDNRKSFLVARISAQVVDYYKEACRALENPDTASLLGRIQKDWKKLVQMKIYYFAAVAHLHMGKQAEEQQKFGERVAYFQSALDKLNEAIKLAKTLQPVKGAPLVKPLPVNPTDPAVTGPDIFAKLV
In the case of B6, the binding [5] is reported as “no binding”.

B7: PTPN23 Bro_Δ6 (GST pull down of Fig. 6D) (domain or fragment, UniProt Q9H3S7)
chain: MEAVPRMPMIWLDLKEAGDFHFQPAVKKFVLKNYGENPEAYNEELKKLELLRQNAVRVPRDFEGCSVLRKYLGQLHYLQSRVPMGSGQEAAVPVTWTEIFSGKSVAHEDIKYEQACILYNLGALHSMLGAMDKRVSEEGMKVSCTHFQCAAGAFAYLREHFPQAYSVDMSRQILTLNVNLMLGQAQECLLEKSMLDNRKSFLVARISAQVVDYYKEACRALENPDTASLLGRIQKDWKKLVQMKIYYFAAVAHLHMGKQAEEQQKFGERVAYFQSALDKLNEAIKLAKTLQPVKGAPLVKPLPVNPTDPAVTGPDIFAKLV
In the case of B7, the binding (GST-WDR4) is reported as “no binding”.

B8: PTPN23 M2 segment (residues 108–328) (domain or fragment, UniProt Q9H3S7 108-328)
chain: EDIKYEQACILYNLGALHSMLGAMDKRVSEEGMKVSCTHFQCAAGAFAYLREHFPQAYSVDMSRQILTLNVNLMLGQAQECLLEKSMLDNRKSFLVARISAQVVDYYKEACRALENPDTASLLGRIQKDWKKLVQMKIYYFAAVAHLHMGKQAEEQQKFGERVAYFQSALDKLNEAIKLAKGQPDTVQDALRFTMDVIGGKYNSAKKDNDFIYHEAVPALD
B8 was tested, and the binding [5] was “binds”.
